Experimental data published in PMC5087658, “Essential role of the Dishevelled DEP domain in a Wnt-dependent human-cell-based complementation assay” (Journal of Cell Science, 2016).
No constants are given. Whether binding was seen depends on the method and setting. Some results given as binding are weak or reduced against the parent protein; the word gives no strength. For some of these results: Where a sequence is shown, tags or fusion partners need not be part of it.

Protein sequences, listed by entry. Tags and fused reporters are not part of them. Residues count along the entry.
UniProt Q13467, residues 27-585: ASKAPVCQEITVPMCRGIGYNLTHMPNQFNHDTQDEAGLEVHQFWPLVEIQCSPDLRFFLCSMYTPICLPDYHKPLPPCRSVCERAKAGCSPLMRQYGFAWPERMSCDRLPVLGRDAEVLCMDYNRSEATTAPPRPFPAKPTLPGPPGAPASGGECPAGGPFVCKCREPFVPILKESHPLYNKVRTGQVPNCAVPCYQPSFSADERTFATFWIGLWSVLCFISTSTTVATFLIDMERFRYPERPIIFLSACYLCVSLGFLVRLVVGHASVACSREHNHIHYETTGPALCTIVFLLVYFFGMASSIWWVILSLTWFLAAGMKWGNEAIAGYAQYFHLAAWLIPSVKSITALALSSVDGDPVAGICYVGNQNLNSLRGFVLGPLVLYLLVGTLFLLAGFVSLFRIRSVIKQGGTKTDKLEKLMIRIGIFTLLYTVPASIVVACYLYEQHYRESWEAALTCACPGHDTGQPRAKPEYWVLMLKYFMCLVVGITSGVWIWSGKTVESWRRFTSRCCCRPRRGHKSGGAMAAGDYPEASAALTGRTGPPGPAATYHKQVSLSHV

T1: DVL2 PDZ domain (PDZ_(265-361)) D331A R338A (DARA), 15N-labelled (human) (UniProt O14641)
T1 sequence (chain, 15N-labelled): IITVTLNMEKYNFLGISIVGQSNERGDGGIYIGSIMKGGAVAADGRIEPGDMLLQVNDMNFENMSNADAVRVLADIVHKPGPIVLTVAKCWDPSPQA

T2: DVL2 PDZ domain (PDZ_(265-361)) V334E, 15N-labelled (human) (UniProt O14641)
T2 sequence (chain, 15N-labelled): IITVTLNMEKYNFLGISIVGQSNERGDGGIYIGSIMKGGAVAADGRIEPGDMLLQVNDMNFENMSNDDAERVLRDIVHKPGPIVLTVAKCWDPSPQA

T3: DVL2 PDZ domain (PDZ_(265-361)), wt, 15N-labelled (human) (UniProt O14641)
T3 sequence (chain, 15N-labelled): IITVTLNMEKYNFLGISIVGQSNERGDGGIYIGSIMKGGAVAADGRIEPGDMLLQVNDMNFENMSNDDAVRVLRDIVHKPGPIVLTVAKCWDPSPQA


Key:
[1] = target: T1, DVL2 PDZ domain (PDZ_(265-361)) D331A R338A (DARA), 15N-labelled (human); test: NMR titration; 1H-15N correlation spectra (fast-HSQC or BEST-TROSY) of 100 µM 15N-PDZ alone or with 3x molar excess (300 µM) of DVL-C or Lip–FZD peptide; 298 K, aqueous phosphate buffer at physiological ionic strength, pH 6.7; both purified
[2] = target: T2, DVL2 PDZ domain (PDZ_(265-361)) V334E, 15N-labelled (human); test: as above
[3] = target: SNAP–FZD5 (UniProt Q13467); test: recruitment assay (GFP fusion recruited to membrane-associated SNAP–FZD5 in co-transfected cells, confocal microscopy); co-overexpression of DVL2–GFP or DEP–GFP with SNAP–FZD5 in HEK293T cells; 100 cells scored for DEP–GFP
[4] = target: T3, DVL2 PDZ domain (PDZ_(265-361)), wt, 15N-labelled (human); test: NMR titration; 1H-15N correlation spectra (fast-HSQC or BEST-TROSY) of 100 µM 15N-PDZ alone or with 3x molar excess (300 µM) of DVL-C or Lip–FZD peptide; 298 K, aqueous phosphate buffer at physiological ionic strength, pH 6.7; both purified

Binder	binding [3]	further results
SEFFVDVM (C-terminal peptide of Dishevelled 1 (Dvl1); Lee et al., 2015; also called DVL-C peptide; source: kindly provided by Jie Zheng (University of California, Los Angeles)) [C-terminal peptide from Dvl1 (DVL-C)]	–	binding [1]: binds weakly; binding [2]: no binding (tested: 300 µM DVL-C with 100 µM PDZ)
human DVL2–GFP, full length, D331A R338A (DARA) (protein, UniProt O14641 1-736) MAGSSTGGGGVGETKVIYHLDEEETPYLVKIPVPAERITLGDFKSVLQRPAGAKYFFKSMDQDFGVVKEEISDDNARLPCFNGRVVSWLVSSDNPQPEMAPPVHEPRAELAPPAPPLPPLPPERTSGIGDSRPPSFHPNVSSSHENLEPETETESVVSLRRERPRRRDSSEHGAGGHRTGGPSRLERHLAGYESSSTLMTSELESTSLGDSDEEDTMSRFSSSTEQSSASRLLKRHRRRRKQRPPRLERTSSFSSVTDSTMSLNIITVTLNMEKYNFLGISIVGQSNERGDGGIYIGSIMKGGAVAADGRIEPGDMLLQVNDMNFENMSNADAVRVLADIVHKPGPIVLTVAKCWDPSPQAYFTLPRNEPIQPIDPAAWVSHSAALTGTFPAYPGSSSMSTITSGSSLPDGCEGRGLSVHTDMASVTKAMAAPESGLEVRDRMWLKITIPNAFLGSDVVDWLYHHVEGFPERREARKYASGLLKAGLIRHTVNKITFSEQCYYVFGDLSGGCESYLVNLSLNDNDGSSGASDQDTLAPLPGATPWPLLPTFSYQYPAPHPYSPQPPPYHELSSYTYGGGSASSQHSEGSRSSGSTRSDGGAGRTGRPEERAPESKSGSGSESEPSSRGGSLRRGGEASGTSDGGPPPSRGSTGGAPNLRAHPGLHPYGPPPGMALPYNPMMVVMMPPPPPPVPPAVQPPGAPPVRDLGSVPPELTASRQSFHMAMGNPSEFFVDVM	binds	–
GKTLESWRRFTS [Lipoyl (Lip)-tagged peptide spanning the KTxxxW motif from FZD5]	–	binding [4]: no binding (tested: 300 µM Lip–FZD5 with 100 µM PDZ)

Continued, in another order:

binding [3]	Binder	further results
binds	human DVL2–GFP, full length, V334E (protein, UniProt O14641 1-736) MAGSSTGGGGVGETKVIYHLDEEETPYLVKIPVPAERITLGDFKSVLQRPAGAKYFFKSMDQDFGVVKEEISDDNARLPCFNGRVVSWLVSSDNPQPEMAPPVHEPRAELAPPAPPLPPLPPERTSGIGDSRPPSFHPNVSSSHENLEPETETESVVSLRRERPRRRDSSEHGAGGHRTGGPSRLERHLAGYESSSTLMTSELESTSLGDSDEEDTMSRFSSSTEQSSASRLLKRHRRRRKQRPPRLERTSSFSSVTDSTMSLNIITVTLNMEKYNFLGISIVGQSNERGDGGIYIGSIMKGGAVAADGRIEPGDMLLQVNDMNFENMSNDDAERVLRDIVHKPGPIVLTVAKCWDPSPQAYFTLPRNEPIQPIDPAAWVSHSAALTGTFPAYPGSSSMSTITSGSSLPDGCEGRGLSVHTDMASVTKAMAAPESGLEVRDRMWLKITIPNAFLGSDVVDWLYHHVEGFPERREARKYASGLLKAGLIRHTVNKITFSEQCYYVFGDLSGGCESYLVNLSLNDNDGSSGASDQDTLAPLPGATPWPLLPTFSYQYPAPHPYSPQPPPYHELSSYTYGGGSASSQHSEGSRSSGSTRSDGGAGRTGRPEERAPESKSGSGSESEPSSRGGSLRRGGEASGTSDGGPPPSRGSTGGAPNLRAHPGLHPYGPPPGMALPYNPMMVVMMPPPPPPVPPAVQPPGAPPVRDLGSVPPELTASRQSFHMAMGNPSEFFVDVM	–
no binding	human DVL2–GFP, full length, L445E (protein, UniProt O14641 1-736) MAGSSTGGGGVGETKVIYHLDEEETPYLVKIPVPAERITLGDFKSVLQRPAGAKYFFKSMDQDFGVVKEEISDDNARLPCFNGRVVSWLVSSDNPQPEMAPPVHEPRAELAPPAPPLPPLPPERTSGIGDSRPPSFHPNVSSSHENLEPETETESVVSLRRERPRRRDSSEHGAGGHRTGGPSRLERHLAGYESSSTLMTSELESTSLGDSDEEDTMSRFSSSTEQSSASRLLKRHRRRRKQRPPRLERTSSFSSVTDSTMSLNIITVTLNMEKYNFLGISIVGQSNERGDGGIYIGSIMKGGAVAADGRIEPGDMLLQVNDMNFENMSNDDAVRVLRDIVHKPGPIVLTVAKCWDPSPQAYFTLPRNEPIQPIDPAAWVSHSAALTGTFPAYPGSSSMSTITSGSSLPDGCEGRGLSVHTDMASVTKAMAAPESGLEVRDRMWEKITIPNAFLGSDVVDWLYHHVEGFPERREARKYASGLLKAGLIRHTVNKITFSEQCYYVFGDLSGGCESYLVNLSLNDNDGSSGASDQDTLAPLPGATPWPLLPTFSYQYPAPHPYSPQPPPYHELSSYTYGGGSASSQHSEGSRSSGSTRSDGGAGRTGRPEERAPESKSGSGSESEPSSRGGSLRRGGEASGTSDGGPPPSRGSTGGAPNLRAHPGLHPYGPPPGMALPYNPMMVVMMPPPPPPVPPAVQPPGAPPVRDLGSVPPELTASRQSFHMAMGNPSEFFVDVM	–
no binding	human DVL2–GFP, full length, K446M (protein, UniProt O14641 1-736) MAGSSTGGGGVGETKVIYHLDEEETPYLVKIPVPAERITLGDFKSVLQRPAGAKYFFKSMDQDFGVVKEEISDDNARLPCFNGRVVSWLVSSDNPQPEMAPPVHEPRAELAPPAPPLPPLPPERTSGIGDSRPPSFHPNVSSSHENLEPETETESVVSLRRERPRRRDSSEHGAGGHRTGGPSRLERHLAGYESSSTLMTSELESTSLGDSDEEDTMSRFSSSTEQSSASRLLKRHRRRRKQRPPRLERTSSFSSVTDSTMSLNIITVTLNMEKYNFLGISIVGQSNERGDGGIYIGSIMKGGAVAADGRIEPGDMLLQVNDMNFENMSNDDAVRVLRDIVHKPGPIVLTVAKCWDPSPQAYFTLPRNEPIQPIDPAAWVSHSAALTGTFPAYPGSSSMSTITSGSSLPDGCEGRGLSVHTDMASVTKAMAAPESGLEVRDRMWLMITIPNAFLGSDVVDWLYHHVEGFPERREARKYASGLLKAGLIRHTVNKITFSEQCYYVFGDLSGGCESYLVNLSLNDNDGSSGASDQDTLAPLPGATPWPLLPTFSYQYPAPHPYSPQPPPYHELSSYTYGGGSASSQHSEGSRSSGSTRSDGGAGRTGRPEERAPESKSGSGSESEPSSRGGSLRRGGEASGTSDGGPPPSRGSTGGAPNLRAHPGLHPYGPPPGMALPYNPMMVVMMPPPPPPVPPAVQPPGAPPVRDLGSVPPELTASRQSFHMAMGNPSEFFVDVM	–
